Measured values from the supplement of paper PMC11417369.
± gives the standard deviation of the averaged measurements. Some of the results follow.

These sequences were tested on PfAP2-I AP2 domain 3 (GST-tagged) (assay: gcPBM binding intensity (ln(normalized median fluorescence intensity)); higher = stronger DNA binding).
Procedure, shortened: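 Binding intensity is the highest Masliner-normalised natural-log median intensity over replicate spots in either probe orientation. To obtain it, GST-tagged P. falciparum DNA-binding domains made in E. coli were incubated for 1 h on an Agilent 4 × 180k array of primer-extended double-stranded 36-bp intergenic genomic probes plus negative controls. Detection used Alexa488 anti-GST antibody with scanning at 488 nm.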

Row | Sequence | gcPBM binding intensity (ln)
1 | AATAGTGTATAAATTTGTACATATAATTAAAAGGAA [XGTACX_site1143] | 8.01 ± 0.59
2 | ATTCATAAAAAGAGGTGTACATTAATATAATATATA [XGTACX_site8283] | 7.87 ± 0.27
3 | TTATTCGAACAAAGGAAAAAATATATTCAAAGGAAA [TGCATGCA_negctrl_site215] | 7.46 ± 0.63
4 | AATAACTTTTTGAGATGTACATTTTTAATTCGTAGA [XGTACX_site8455] | 7.61 ± 0.44
5 | TTTTTAACTAACATATCAATTCCATACGTCGTCAAA [CACACA_negctrl_site560] | 7.61 ± 0.64
6 | ACTTTAATAATTCACTTATTTTCTTATTATATTATT [CACACA_negctrl_site556] | 7.97 ± 0.65
7 | GGATTTATTTTATATACACACATACCTATATTTATA [CACACA_site7084] | 7.79 ± 0.64
8 | ATATAAATAAAAAAAAAAAAAAAAAAAAAAAAAAAA [CACACA_negctrl_site972] | 8.27 ± 0.89
9 | TATGCTACATTATATGTACACACATATACATATATA [CACACA_site8199] | 7.86 ± 0.23
10 | ATTTATACGTAATATGCATAAATATAAATATATATA [XGTACX_negctrl_site133] | 8.04 ± 0.56
11 | TTTCTTTCTTTCTTTTTTTAAATATTTTTTAAAAAT [TGCATGCA_negctrl_site206] | 7.98 ± 0.62
12 | TTAAAATTTTAAAAATTTTAATTTTACAAAAAAAAT [TGCATGCA_negctrl_site227] | 7.38 ± 0.58
13 | AAATTAATGAAATATACACACATATATAAATATATA [CACACA_site4378] | 7.33 ± 0.52
14 | AAATTAAAGATAAAAGTGCAAAATTATAAATTTATT | 9.64 ± 0.071
15 | TATATATAACATTGTACACACAAAGAAATAATATTA [CACACA_site3035] | 7.96 ± 0.3
16 | AAAAGTATATATTCAGTGCATAGTCTTTAAATATAA [GTGCAC_site9522] | 9.19 ± 0.28
17 | ATAAGCATCTGGATATGTACTTATTCCTTTAAAGAT [XGTACX_site6225] | 7.62 ± 0.36
18 | AACAAGTTGCATGGTGCACACATGTATTTATATCTA [CACACA_site5414] | 10.6 ± 0.11
19 | TATTAAAAATATTATGTACACACATTTTAGATATTT [CACACA_site8549] | 7.75 ± 0.23

Row | Sequence | gcPBM binding intensity (ln)
20 | ATAAAAAAGCAACATCATATGTTTTTATAGAGTATT [CACACA_negctrl_site745] | 7.47 ± 0.69
21 | AGTAATAGTTTGTGCACACTCAAGTATATCATAGAT [CACACA_site6082] | 11 ± 0.23
22 | TTTCGCTTTATTTATGCATGCAAATAAGTTGATATT [TGCATGCA_site724] | 8.06 ± 0.66
23 | ATTTTTGTAAATACATGTACATATATATGCATATCC [XGTACX_site6353] | 8.21 ± 0.45
24 | TACATATATACATACACACACATATAACCAATGTAG [CACACA_site2192] | 7.83 ± 0.39
25 | AAGAAAAATATTCGTGTGCACAGAAGTATATGTGTG [GTGCAC_site9814] | 10 ± 0.23
26 | TATTGTAAGAAAGGCACACAGATAAAATTATTATAT [CACACA_site2921] | 8.11 ± 0.61
27 | ATATAAGTGTATCTAACACACAAATATATAAAAATG [CACACA_site1956] | 7.8 ± 0.49
28 | ATAATTATATGGCTAGCACACAATAAATAATTATAT [CACACA_site3815] | 7.92 ± 0.42
29 | ATCATCTTTATTCAAGTGCACTGAAAATTTTTTATA [GTGCAC_site9801] | 11.1 ± 0.32
30 | ACAAGTTAAAATATTACACACATATAAATATTTATA [CACACA_site7467] | 7.72 ± 0.62
31 | TTATACATTTGTAAATAAATAGAACTGTATTTTTTT [TGCATGCA_negctrl_site397] | 7.24 ± 0.59
32 | TATATACCGATATATACACACAAATACATAAGCTTC [CACACA_site6760] | 7.58 ± 0.63
33 | CAAAATATTTTTATAACACACATATTTATAACGTGC [CACACA_site6659] | 7.73 ± 0.67
34 | TTTTGATTGTTATTCGTATATTATTTTATGATTATA [CACACA_negctrl_site1593] | 7.49 ± 0.67
35 | AATAATCATTTTCATAGTACGTATGATTAGAAAAAA [XGTACX_site2589] | 7.84 ± 0.49
36 | ATATTTCATCTAGCTACACACATATAATAAATTATT [CACACA_site4094] | 8.07 ± 0.63
37 | TGCCAATTTTTAAAAACATGCATTATATAGAATAAA [TGCATGCA_site872] | 7.97 ± 0.57
38 | AATGGAAAATTATTAACACACACATATAAATATATA [CACACA_site7899] | 7.62 ± 0.46

Row | Sequence | gcPBM binding intensity (ln)
39 | TTTTCAATATATAGAGCATGCGCATCCACAAATATG [TGCATGCA_site380] | 7.93 ± 0.79
40 | TACAACAATTTTTGCACACACCAAAACATAAAATAA [CACACA_site4964] | 9.15 ± 0.22
41 | ATTAAAAGGGGGTTTACATGTGTGTGTGTAATATGG [TGCATGCA_negctrl_site293] | 8.59 ± 0.58
42 | AAATGAATTATATAATATATATAAATAAATAAATAA [CACACA_negctrl_site359] | 7.78 ± 0.71
43 | TAATAAGTACCTTTTGCATGTGGCACGCTTTTTTTT [TGCATGCA_site573] | 8.45 ± 0.92
44 | TATTATATAACAAAAAGTACTTATAAGAAATATATA [XGTACX_site5467] | 7.7 ± 0.26
45 | CTAAATATATAAAAAAGTACAAAATAAATAATAATT [XGTACX_site2442] | 8.05 ± 0.25
46 | TATTTCTGATTATTTTGTACACATTATATATAATGC [XGTACX_site6990] | 8.04 ± 0.29
47 | TATATATTATGACCACCACACACCTATACACATAAC [CACACA_site8773] | 8.34 ± 0.4
48 | AATATAAACAGACACACACACATATAGATTTATATT [CACACA_site7382] | 7.8 ± 0.52
49 | TTTTAATGAAAACACACACACACATATATATATATA [CACACA_site5295] | 9.39 ± 0.3
50 | GAAAATAGAAAAAGCACACATATATTTTGGAATGTA [CACACA_site551] | 7.83 ± 0.42
51 | GGATAGATAATAGGGGGTACAAATATACATACATAT [XGTACX_site5089] | 9.05 ± 0.16
52 | TTGTGTGTATGTATACATATATATATTGAGACGAAT [TGCATGCA_negctrl_site382] | 8.13 ± 0.82
53 | TTTCCATTATGATATAGTACATAAATATATGTAATA [XGTACX_site6992] | 7.73 ± 0.31
54 | ACATATAATAAAAAATGTACACACATAAGAAAATTT [XGTACX_site6153] | 7.96 ± 0.62
55 | AAAAAAAATATATAAACACACATATTTATATACTCA [CACACA_site4984] | 7.44 ± 0.34
56 | ACTATAAATATATAAATATATATATATATATATATA [GTGCAC_negctrl_site65] | 9.34 ± 0.8
